Measured values reported in PubChem BioAssay AID1030 (National Center for Advancing Translational Sciences (NCATS), 2008).
Screen size: about 220,000 compounds; about 16,000 (7.3%) were called active. The inconclusive results got no clear call from the source; some entries with a clear call stand among them for comparison. Calls follow the shape of the dose curve; as a rule, active = well fitted inhibition curve with a large enough effect (not every such curve was filed as active); inconclusive = small, poorly fitted or top-dose-only effect, or another doubt; inactive = no such curve, though single readings can be large or run the other way. No potency is given beside an inconclusive call; the fits are too rough.

Each compound was assayed against Aldehyde dehydrogenase 1A1 (Homo sapiens) (UniProt P00352) (assay: qHTS Assay for Inhibitors of Aldehyde Dehydrogenase 1 (ALDH1A1)). Details: Purified ALDH1A1, NADH fluorescence, propionaldehyde substrate; series mostly up to 75.3 µM.
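For activity, negative = inhibition in this document: plate controls were no enzyme wells and a reference inhibitor.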
Potency is read from the fitted curve at half-maximal effect; tags tell the direction and shape of the fitted curve.

Sequence of UniProt P00352 (P00352 whole entry, looked up): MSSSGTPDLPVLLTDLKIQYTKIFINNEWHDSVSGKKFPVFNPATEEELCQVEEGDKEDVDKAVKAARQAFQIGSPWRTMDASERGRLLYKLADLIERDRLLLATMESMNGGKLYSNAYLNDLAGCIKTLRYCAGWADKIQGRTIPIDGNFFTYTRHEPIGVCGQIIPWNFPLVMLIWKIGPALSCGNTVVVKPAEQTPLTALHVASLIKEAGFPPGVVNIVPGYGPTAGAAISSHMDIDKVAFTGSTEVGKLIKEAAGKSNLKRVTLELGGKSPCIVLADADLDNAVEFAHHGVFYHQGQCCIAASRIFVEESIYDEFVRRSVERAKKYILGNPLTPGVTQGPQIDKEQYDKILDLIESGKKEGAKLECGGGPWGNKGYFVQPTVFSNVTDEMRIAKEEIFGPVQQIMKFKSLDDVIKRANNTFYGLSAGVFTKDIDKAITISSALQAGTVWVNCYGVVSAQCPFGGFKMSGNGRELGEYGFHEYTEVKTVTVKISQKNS

| SMILES | Potency | activity, negative = inhibition |
| --- | --- | --- |
| O=C(Nc1cccc(F)c1)N1CCCC2(CCN(C(=O)c3cnccn3)CC2)C1 | inconclusive [inhibitor, single point] | – |
| CC(C)(C)C1CCC(=NNC(=S)Nc2cccnc2)CC1 (centres undefined) | inconclusive [inhibitor, single point] | – |
| O=C(/C=C/c1cccc([N+](=O)[O-])c1)Nc1cc(C(=O)O)cc(C(=O)O)c1 | inconclusive [inhibitor, single point] | – |
| CC(N)(COP(=O)(O)O)C(=O)O (centres undefined) | inactive | – |
| Nc1nc2c(c(=O)[nH]1)N[C@H](CCNc1ccc(C(=O)O)cc1)CN2 | – | inactive: -8.92% [at 13.5 µM] |
| COC(=O)/C=C1\S/C(=N/NC(=O)c2ccc(OC)cc2)NC1=O | inconclusive [inhibitor, single point] | – |
| O=C(N/N=C/c1cccn1-c1cccc(C(=O)O)c1)Nc1ccccc1 | inactive | – |
| C[N+](C)(C)CCOc1ccc([N+](=O)[O-])cc1 | inactive | – |
| O=C(/C=C/c1cccc([N+](=O)[O-])c1)NCCSCc1cccc(Cl)c1 | inconclusive [inhibitor, partial curve] | – |
| Cc1ccc(C(=O)CC2(O)C(=O)N(C)c3ccccc32)s1 (centres undefined) | inactive | – |
| CCOC(=O)C1(CC2CCCCO2)CCN(Cc2cc3ccccc3[nH]2)CC1 (centres undefined) | active: 1.26 µM | – |
| CCOC(=O)N1CCN(C(=O)CN(C)S(=O)(=O)c2ccc3c(c2)C(C)(C)C(=O)N3C)CC1 | inconclusive [inhibitor, single point] | – |
| Cc1ccc(C(=O)CN2CCC(NC(=O)C3CCCCC3)CC2)cc1 | active: 14.1 µM | – |
| Cc1onc(-c2ccccc2)c1C(=O)Nc1sc2c(c1C#N)CCC(C)C2 (centres undefined) | inconclusive [inhibitor, single point] | – |
| C#CCCCO/N=C1/C[C@@H](O)[C@@H](O)[C@@H]2[C@H]3C(=O)N(c4ccc(F)cc4F)C(=O)[C@@H]3CC[C@@H]12 | – | inactive: 4.65% [at 13.5 µM] |
| CCn1c(=O)cc(SCC(=O)N(C)Cc2ccccc2)c2ccccc21 | inconclusive [inhibitor, single point] | – |
| CCSc1nnc(-c2ccc(Cl)cc2Cl)o1 | inconclusive [inhibitor, single point] | – |
| O=C(CCCCCN1C(=O)CCC1=O)NCc1ccccc1 | inconclusive [inhibitor, single point] | – |
| COC(=O)c1sc2nc(-c3ccccc3)c3c(c2c1N)CCCC3 | inconclusive [inhibitor, single point] | – |
